T1: high-affinity hIL-2 receptor (IL-2Rαβγ) on NK-92 cells (human, UniProt P01589 22-272; P14784 27-551; P31785 23-369)
T1 sequence 1: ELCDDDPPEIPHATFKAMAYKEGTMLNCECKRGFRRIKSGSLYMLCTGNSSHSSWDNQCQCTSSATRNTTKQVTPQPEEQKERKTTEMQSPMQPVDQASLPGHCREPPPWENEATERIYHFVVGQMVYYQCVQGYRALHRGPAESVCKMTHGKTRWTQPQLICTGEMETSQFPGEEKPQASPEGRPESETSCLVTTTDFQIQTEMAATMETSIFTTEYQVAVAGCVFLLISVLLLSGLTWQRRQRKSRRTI
T1 sequence 2: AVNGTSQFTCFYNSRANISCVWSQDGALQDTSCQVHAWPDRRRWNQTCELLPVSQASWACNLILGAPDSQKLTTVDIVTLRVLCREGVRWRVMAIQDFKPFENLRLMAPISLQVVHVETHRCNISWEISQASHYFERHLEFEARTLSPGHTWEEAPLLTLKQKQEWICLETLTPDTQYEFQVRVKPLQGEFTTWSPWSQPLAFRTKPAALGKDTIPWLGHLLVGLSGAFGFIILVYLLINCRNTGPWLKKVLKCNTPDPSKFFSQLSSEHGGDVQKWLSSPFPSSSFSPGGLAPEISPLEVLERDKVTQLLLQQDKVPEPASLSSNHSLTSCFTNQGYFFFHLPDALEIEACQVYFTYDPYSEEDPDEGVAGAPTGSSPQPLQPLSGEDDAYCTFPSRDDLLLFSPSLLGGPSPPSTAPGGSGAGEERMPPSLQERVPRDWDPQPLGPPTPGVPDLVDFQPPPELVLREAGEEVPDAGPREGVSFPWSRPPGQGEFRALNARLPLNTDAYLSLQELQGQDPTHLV
T1 sequence 3: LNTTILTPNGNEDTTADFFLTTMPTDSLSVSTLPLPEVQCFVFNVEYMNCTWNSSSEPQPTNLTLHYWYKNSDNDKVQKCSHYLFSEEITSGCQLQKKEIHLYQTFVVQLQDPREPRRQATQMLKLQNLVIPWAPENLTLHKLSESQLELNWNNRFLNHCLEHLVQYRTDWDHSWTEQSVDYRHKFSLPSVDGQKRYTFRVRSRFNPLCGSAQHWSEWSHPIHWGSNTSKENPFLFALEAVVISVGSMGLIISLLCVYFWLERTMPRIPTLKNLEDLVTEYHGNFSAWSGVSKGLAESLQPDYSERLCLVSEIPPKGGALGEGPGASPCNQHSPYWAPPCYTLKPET

T2: intermediate-affinity hIL-2 receptor (IL-2Rβγ) on TF1+IL-2Rβ cells (human, UniProt P14784 27-551; P31785 23-369)
T2 sequence 1: T1 sequence 2
T2 sequence 2: T1 sequence 3

B1: D12-hIgG4-df-hIL-2 (D20A/R38E) (other)
heavy: DVQLVESGGGLVQPGGSLRLSCAASGFTFDISAMSWVRQAPGKGLEWVSTISGSAYSTYYADSVKGRFTISRDNSKSTLYLQMNSLRAEDTAVYYCAREIFSDYWGLGTLVTVSSASTKGPSVFPLAPCSRSTSESTAALGCLVKDYFPEPVTVSWNSGALTSGVHTFPAVLQSSGLYSLSSVVTVPSSSLGTKTYTCNVDHKPSNTKVDKRV[not shown - about 350 residues with a human IgG4 Fc]
light: QSVLTQPPSASGTPGQRVTISCSGNTSNIGRESVYWYQQLPGTAPKLLIYSNVQRPSGVPDRFSGSKSGTSASLAISGLQSEDEADYYCGTWDDSLNGWVFGGGTKLTVLGQPKAAPSVTLFPPSSEELQANKATLVCLISDFYPGAVTVAWKADSSPVKAGVETTTPSKQSNNKYAASSYLSLTPEQWKSHRSYSCQVTHEGSTVEKTVAPTECS
B2: OMC476pB11-hIgG4-df-hIL-2 (D20A/R38E) (other)
heavy: DVQLVESGGGVVRPGESLRLSCTASGFTFSISAMSWVRQAPGKGLEWVSAISGTAYSTYYADSVRGRFTISRDNSKNTLYLQMNSLRAEDTAVYYCAKDNFFDYWGLGTLVTVSSASTKGPSVFPLAPCSRSTSESTAALGCLVKDYFPEPVTVSWNSGALTSGVHTFPAVLQSSGLYSLSSVVTVPSSSLGTKTYTCNVDHKPSNTKVDKRV[not shown - about 350 residues with a human IgG4 Fc]
light: B1 light with L4M, N25V, R31S, E32N, S51L, V53S
B3: G12-hIgG4-df-hIL-2 (D20A/R38E) (other)
heavy: DSLVESGGGLVQPGGSLRLSCAASGFTFDISAMSWVRQAPGKGLEWVSTISGSAYSTYYADSVKGRFTISRDNSKSTLYLQMNSLRAEDTAVYYCAREIFSDYWGLGTLVTVSSASTKGPSVFPLAPCSRSTSESTAALGCLVKDYFPEPVTVSWNSGALTSGVHTFPAVLQSSGLYSLSSVVTVPSSSLGTKTYTCNVDHKPSNTKVDKRV[not shown - about 350 residues with a human IgG4 Fc]
light: B1 light with N25S, S51L, V53S, E84V
B4: OMC476pE4-hIgG4-df-hIL-2 (D20A/R38E) (other)
heavy: DVQLVESGGGVVRPGESLRLSCAASGFTFSTDAMGWVRQAPGEGLEWVSLISGSGYSTYYADSVKGRFTISRDNSKNTLYLQMNSLTAEDTAVYYCAKNSLAFFDYWGLGTLVTVSSASTKGPSVFPLAPCSRSTSESTAALGCLVKDYFPEPVTVSWNSGALTSGVHTFPAVLQSSGLYSLSSVVTVPSSSLGTKTYTCNVDHKPSNTKVDKRV[not shown - about 350 residues with a human IgG4 Fc]
light: B1 light with N25G, T26S, Y35N, N52T, V53D, Q54R, D94N, S95D
B5: A2-hIgG4-df-hIL-2 (D20A/F42A) (other)
heavy: DVQLVESGGGLVQPGGSLRLSCAASGFTFDISAMSWVRQAPGKGLEWVSTISGSAYSTYYADSVKGRFTISRDNSKSTLYLQMNSLRAEDTAVYYCAREIFSDYWGLGTLVTVSSASTKGPSVFPLAPCSRSTSESTAALGCLVKDYFPEPVTVSWNSGALTSGVHTFPAVLQSSGLYSLSSVVTVPSSSLGTKTYTCNVDHKPSNTKVDKRV[not shown - about 350 residues with a human IgG4 Fc and changes]
light: B1 light with N25S, V59A, D61N
B6: A2-hIgG4-df-hIL-2 (D20A/F42S) (other)
heavy: DVQLVESGGGLVQPGGSLRLSCAASGFTFDISAMSWVRQAPGKGLEWVSTISGSAYSTYYADSVKGRFTISRDNSKSTLYLQMNSLRAEDTAVYYCAREIFSDYWGLGTLVTVSSASTKGPSVFPLAPCSRSTSESTAALGCLVKDYFPEPVTVSWNSGALTSGVHTFPAVLQSSGLYSLSSVVTVPSSSLGTKTYTCNVDHKPSNTKVDKRV[not shown - about 350 residues with a human IgG4 Fc and changes]
light: B1 light with N25S, V59A, D61N
B7: OMC476pG10-hIgG4-df-hIL-2 (D20A/R38E) (other)
heavy: DVQLVESGGGVVRPGGSLRLSCAASGFTFSIYAMSWVRQAPGEGLEWVSHISASGGSTYYADSVKGRFAISRDNSKNTLYLQMNSLRAEDTAVYYCTTNLGSDYWGLGTLVTVSSASTKGPSVFPLAPCSRSTSESTAALGCLVKDYFPEPVTVSWNSGALTSGVHTFPAVLQSSGLYSLSSVVTVPSSSLGTKTYTCNVDHKPSNTKVDKRV[not shown - about 350 residues with a human IgG4 Fc]
light: QSVLTQPPSASGTPGQRVTISCSGSYSDIGTNYVYWYQQLPGTAPKLLIFATDRRPSGVPDRFSGSKSGTSASLAISGLQSEDEADYYCGTWDDSLNVWVFGGGTKLTVLGQPKAAPSVTLFPPSSEELQANKATLVCLISDFYPGAVTVAWKADSSPVKAGVETTTPSKQSNNKYAASSYLSLTPEQWKSHRSYSCQVTHEGSTVEKTVAPTECS
B8: OMC476pH10-hIgG4-df-hIL-2 (D20A/R38E) (other)
heavy: DVQLVESGGGVVRPGGSLRLSCAASGFTFSIYAVSWVRQAPGEGLEWVSHISASGGSTYYADSVKGRFAISRDNSKNTLYLQMNSLRAEDTAVYYCTTNLGSDYWGLGTLVTVSSASTKGPSVFPLAPCSRSTSESTAALGCLVKDYFPEPVTVSWNSGALTSGVHTFPAVLQSSGLYSLSSVVTVPSSSLGTKTYTCNVDHKPSNTKVDKRV[not shown - about 350 residues with a human IgG4 Fc]
light: B7 light

Numbering of substitutions follows the chain as printed. Names and notes keep the numbering of the source.

The target of the first assay is T1, high-affinity hIL-2 receptor (IL-2Rαβγ) …. The assay can be described thus: cell-based or functional assay.
As for B1, the “Agonistic Activity (NK-92)” value came out at 20% and the “Fold change from rhIL-2 (NK-92)” value is above 10000 fold.

Take B2: the “Agonistic Activity (NK-92)” value was 70% and the “Fold change from rhIL-2 (NK-92)” value is above 10000 fold.

As to B3, the “Agonistic Activity (NK-92)” value was found to be 20% and the “Fold change from rhIL-2 (NK-92)” value is above 10000 fold.

Take B4: the “Agonistic Activity (NK-92)” value came out at 70% and the “Fold change from rhIL-2 (NK-92)” value was above 10000 fold.

Turning to B5, the “Fold change from rhIL-2 (NK-92)” value amounted to 284 fold.

With B6, the “Fold change from rhIL-2 (NK-92)” value came to 3540 fold.

Turning to B7, the “Agonistic Activity (NK-92)” value came out at 70% and the “Fold change from rhIL-2 (NK-92)” value is above 10000 fold.

For B8, the “Agonistic Activity (NK-92)” value was determined as 70% and the “Fold change from rhIL-2 (NK-92)” value is above 10000 fold.

For the next assay, the target named is T2, intermediate-affinity hIL-2 receptor …. Put plainly: cell-based or functional assay.
On to B1, for which the “Agonistic Activity (TF1 + IL-2Rβ)” value was found to be 40% and the “Fold change from rhIL-2 (TF1 + IL-2Rβ)” value was above 10000 fold.

Consider B2, for which the “Fold change from rhIL-2 (TF1 + IL-2Rβ)” value was 36 fold.

As for B3, the “Agonistic Activity (TF1 + IL-2Rβ)” value was 50% and the “Fold change from rhIL-2 (TF1 + IL-2Rβ)” value was above 10000 fold.

On to B4, for which the “Fold change from rhIL-2 (TF1 + IL-2Rβ)” value amounted to 1620 fold.

Turning to B5, the “Agonistic Activity (TF1 + IL-2Rβ)” value is 80% and the “Fold change from rhIL-2 (TF1 + IL-2Rβ)” value was around 4320 fold.

In the case of B6, the “Agonistic Activity (TF1 + IL-2Rβ)” value turned out to be 90% and the “Fold change from rhIL-2 (TF1 + IL-2Rβ)” value is around 4050 fold.

On to B8, for which the “Agonistic Activity (TF1 + IL-2Rβ)” value was 80% and the “Fold change from rhIL-2 (TF1 + IL-2Rβ)” value was around 3560 fold.

The target is the same in a further assay. Put plainly: cell-based or functional assay. The source holds these as a separate data set.
Consider B1, for which the “Fold decrease from rhIL-2 (TF1 + IL-2Rβ + hPD-1)” value (from here on “Fold decrease”) is around 1 fold.

B2: the “Fold decrease” value was around 0 fold.

As to B3, the “Fold decrease” value is around 1 fold.

Turning to B4, the “Fold decrease” value was around 2 fold.

As for B5, the “Fold decrease” value is around 2 fold.

On to B6, for which the “Fold decrease” value was around 1 fold.

As for B7, the “Fold decrease” value was around 0 fold.

For the molecule B8, the “Fold decrease” value is around 1 fold.

The values are drawn from patent US20240076343A1 (CEPHALON, published 2024).
